Laboratory results: PubChem BioAssay AID588855 (National Center for Advancing Translational Sciences (NCATS), 2011)
About 5,000 (1.2%) of roughly 410,000 compounds were called active. This list was built around the results that the source calls inconclusive (neither active nor inactive); the mix of calls is not that of the screen. Calls come from the whole dose curve; as a rule, active = well fitted inhibition curve with a large enough effect; inconclusive = small, poorly fitted or top-dose-only effect; inactive = no such curve, though single readings can be large or run the other way. Potencies of inconclusive entries are doubtful fits and often do not repeat.

Assay: qHTS for Inhibitors of TGF-b; note: nearly all actives have a fitted effect of over 65% in size
Settings: HepG2 CAGA-GFP TGF-b/SMAD3 reporter, GFP fluorescence, 18 h, TGF-beta stimulated, 500 pg/mL final; series mostly up to 46.1 µM; activity, negative = inhibition: at the top concentration
How it was run: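 Per well, imaged GFP fluorescence of HEPG2 CAGA-GFP cells gives the signal; cells get compound, then TGF-beta (500 pg/mL final), 18 h at 37 degrees C; %Activity versus -TGF-beta and +DMSO controls.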
% is set by controls: 0 for no effect and ±100 for the full control effect; potency is the fitted concentration of half-maximal effect; tags give direction and shape of the fitted curve.

| Compound | Potency | activity, negative = inhibition |
| --- | --- | --- |
| Fc1ccc(Nc2nc(SCc3cccc(Cl)c3)nc3ccccc23)cc1 | inconclusive: 0.631 µM [inhibitor, full curve, poor fit] | – |
| COc1ccc(S(=O)(=O)NCC2CCCN(C(=O)CCC(F)(F)F)C2)cc1 (stereo not given) | – | inactive: -22.5% |
| c1ccc(-c2nc(-c3cccs3)[nH]c2-c2ccccc2)cc1 | inconclusive: 10 µM [inhibitor, partial curve, poor fit] | – |
| O=C(c1ccc([N+](=O)[O-])cc1)N1CCN(c2cccc3[nH]ccc23)CC1 | – | inactive: -12.2% |
| C#CCOCCOCCOCCNc1nc(N2CCN(C(=O)[C@H](C(C)C)n3cc(CCO)nn3)CC2)nc(N2CCN(C(=O)[C@H](CCCCN)n3cc(CCCC)nn3)CC2)n1 | – | inactive: 21.8% |
| CCOc1ccc(NC(=O)CN2CCN(CC(=O)Nc3ccc(F)cc3)CC2)cc1 | inconclusive: 35.5 µM [inhibitor, single point] | – |
| Cc1ccc2nc(Cl)c3cc(C(=O)NCCCN4CCCC4)sc3c2c1 | inconclusive: 25.1 µM [inhibitor, single point] | – |
| COCc1c(C(=O)N2CCN(c3ccc(C(F)(F)F)cn3)CC2)oc2ccccc12 | inconclusive: 31.6 µM [inhibitor, partial curve, poor fit] | – |
| CS(=O)(=O)c1ccccc1-c1nnc(NC(=O)c2ccc3c(c2)OCCO3)o1 | – | inactive: 6.29% |
| Cc1ccc(-n2c(N)c(C(N)=O)sc2=S)c(C)c1 | inconclusive: 12.6 µM [inhibitor, partial curve] | – |
| Cc1cccc(NS(=O)(=O)c2ccc3c(c2)CCC(=O)N3)c1 | inconclusive: 3.98 µM [inhibitor, single point] | – |
| C=CCC[C@@H](Cc1ccc(F)cc1)C(=O)OCCNC(=O)[C@@H](CC=C)CC(=O)N[C@H](CO)Cc1ccccc1 | – | inactive: -10.1% |
| NC(CO)c1csc(Nc2ccc(C(=O)c3ccccc3)cc2)n1 (stereo not given) | – | inactive: 11.5% |
| COC(=O)C1=C(C(=O)OC)[C@@H]2N(C)c3ccccc3[C@@]23C[C@@H](C(=O)OC)N(C(C)=O)C3=N1 | inconclusive: 11.2 µM [inhibitor, partial curve, poor fit] | – |
| CN1C(=O)C(=O)/C(=C(/O)c2ccc(Br)cc2)C1c1cccc([N+](=O)[O-])c1 (stereo not given) | – | inactive: -9.06% |
| Cc1cccc(C2NC(c3cccc(C)c3)C([N+](=O)[O-])C(C)(C)C2[N+](=O)[O-])c1 (stereo not given) | – | inactive: 10.9% |
| COc1cc(NC(=O)COC(=O)CO/N=C(\C)c2ccc3c(c2)OCO3)cc(OC)c1OC | inconclusive: 35.5 µM [inhibitor, single point] | – |
| O=C(/C=C/c1ccc(F)cc1)Nc1ccc(S(=O)(=O)N2CCOCC2)cc1 | – | inactive: 0% |
| CCOC(=O)C1=C(C)NC(=S)N(C(C)=O)C1c1ccc(Cl)cc1 (stereo not given) | inconclusive: 22.4 µM [inhibitor, single point] | – |
| CC(C)(C)c1cccc(Cn2nnc3ccccc32)c1O | inconclusive: 14.1 µM [inhibitor, single point] | – |
| O=C(Cn1c(=O)n(Cc2ccco2)c(=O)c2oc3ccccc3c21)Nc1ccc(F)c(Cl)c1 | inconclusive: 4.47 µM [inhibitor, full curve, poor fit] | – |
| O=C(NC(=S)NCCc1ccccc1)c1ccco1 | inconclusive: 0.891 µM [inhibitor, full curve, poor fit] | – |

| Compound | Potency | activity, negative = inhibition |
| --- | --- | --- |
| Fc1ccc(C(CCNCc2ccccn2)c2ccc(Cl)cc2)cc1 (stereo not given) | inconclusive: 35.5 µM [inhibitor, single point] | – |
| COc1ccc2[nH]c(=O)c(C(c3nnnn3C3CCCC3)N(C)C3CCCCC3)cc2c1 (stereo not given) | – | inactive: -3.69% |
| CCOC(=O)c1c(NC(=O)CN(C)C2CCN(C)CC2)sc(C(=O)Nc2ccccc2)c1C | – | inactive: 12.9% |
| C[C@@H]1CC=C[C@H]2[C@H]1C(=O)N(Cc1ccccc1)[C@H]2c1ccc(C(F)(F)F)cc1 | active: 22.4 µM | – |
| CCc1cc(-c2n[nH]c(C)c2-c2ccccc2Cl)c(O)cc1OC | inconclusive: 35.5 µM [inhibitor, single point] | – |
| CCc1nnc2c(N3CCN(c4cccc(C(F)(F)F)c4)CC3)nc3ccccc3n12 | inconclusive: 6.31 µM [inhibitor, single point] | – |
| CCC(=O)Nc1ccc(-c2nnc(SCc3ccccc3)n2C)cc1 | – | inactive: -1.67% |
| Cc1c(NC(=O)CCc2ccccc2)cccc1[N+](=O)[O-] | – | inactive: 1.58% |
| COc1ccc(N(CC(O)Cn2c(C)nc3ccccc32)S(=O)(=O)c2ccccc2)cc1 (stereo not given) | inconclusive: 35.5 µM [inhibitor, single point] | – |
| CCc1[nH]nc2c1C(c1ccc(Br)s1)C(C#N)=C(N)O2 (stereo not given) | active: 11.2 µM | – |
| COc1ccc(CN2CCc3c([nH]c4ccccc34)C2)cc1Br | inconclusive: 35.5 µM [inhibitor, partial curve, poor fit] | – |
| CCc1cc2c3c(c1)C(C)CC(C)(C)N3C(=O)C2=O (stereo not given) | inconclusive: 2.24 µM [inhibitor, partial curve, poor fit] | – |
| CCOC(=O)c1c(NC(=O)CCC(=O)O)sc2c1CCCCC2 | – | inactive: -29.7% |
| Cc1ccc(OCC(=O)N2N=C(c3ccc(Cl)cc3)CC2c2ccco2)c([N+](=O)[O-])n1 (stereo not given) | – | inactive: 4.86% |
| COc1ccc(CCNC(=O)C2CCCN(S(C)(=O)=O)C2)cc1 (stereo not given) | – | inactive: -8.94% |
| CC(CNC(=O)CCC(=O)N1CCOc2ccc(Cl)cc21)c1ccccc1 (stereo not given) | – | inactive: -2.46% |
| CCCOc1ccc(CNC(=O)c2oc3ccc4c(c3c2C)C(=O)CC(C)(CC)O4)cc1 (stereo not given) | inconclusive: 22.4 µM [inhibitor, single point] | – |
| CC(C)(C)CC(=O)NC(=S)NCc1ccccc1 | inconclusive: 14.1 µM [inhibitor, single point] | – |
| CC[C@]12c3[nH]c4cc(CCC(=O)N(C)C)ccc4c3CCN1C(=O)[C@@H](CC(=O)NCC13CC4CC(CC(C4)C1)C3)C[C@@H]2C(=O)N1CCN(C(=O)C2CC2)CC1 | inconclusive: 14.1 µM [inhibitor, partial curve, poor fit] | – |
| CCCCC1=CC2=CC(=O)C(C)(OC(=O)CC)C(=O)C2=CN1Cc1ccc(OC)cc1 (stereo not given) | inconclusive: 14.1 µM [inhibitor, single point] | – |
| COc1cnn(-c2ccccc2)c(=O)c1SCc1ccc(Cl)cc1Cl | – | inactive: -3.19% |
| Cc1ccc(-c2nc3ccccc3o2)cc1NC(=S)NC(=O)c1cccs1 | inconclusive: 35.5 µM [inhibitor, single point] | – |

| Compound | Potency | activity, negative = inhibition |
| --- | --- | --- |
| Cc1oc2cc3oc(=O)c(CC(=O)N4CCCCC4)c(C)c3cc2c1C | – | inactive: 0.487% |
| Brc1ccccc1-n1nnc(-c2cnc3ccccc3c2)n1 | inconclusive: 10 µM [inhibitor, partial curve] | – |
| O=C(CCn1cnc2ccccc2c1=O)Nc1cccc(Cl)c1Cl | – | inactive: -14.4% |
| CCCCC(=O)N1CCN(c2nc3ccc(F)cc3s2)CC1 | inconclusive: 35.5 µM [inhibitor, single point] | – |
| COC(=O)[C@]1(C)N[C@H](CN(C)C(=O)c2ccc(F)cc2)[C@@H]2C(=O)N(C)C(=O)[C@@H]21 | – | inactive: 3.25% |
| CCOC(=O)c1cc(C)n(-c2c(C)n(C)n(-c3ccccc3)c2=O)c1C | inconclusive: 0.562 µM [inhibitor, full curve, poor fit] | – |
| S=C(NN=C(c1ccccc1)c1ccccn1)N(Cc1ccccn1)Cc1ccccn1 | inconclusive: 7.94 µM [inhibitor, partial curve, poor fit] | – |
| COc1ccc(S(=O)(=O)N2CCCC2CNC(=O)C(=O)NCCc2ccccc2)cc1 (stereo not given) | – | inactive: 0% |
| Cc1ccc(C(=O)c2cn(Cc3ccccc3)c3cc4c(cc3c2=O)OCCO4)cc1 | inconclusive: 7.94 µM [inhibitor, partial curve, poor fit] | – |
| CCN(C[C@H]1N[C@@](CC)(C(=O)OC)[C@H]2C(=O)N(Cc3ccccc3)C(=O)[C@@H]12)S(=O)(=O)c1ccc(OC(F)(F)F)cc1 | inconclusive: 11.2 µM [inhibitor, partial curve, poor fit] | – |
| O=C(CCSCc1cccc(Cl)c1)NCCc1ccccc1 | inconclusive: 0.891 µM [inhibitor, full curve] | – |
| CCOC(=O)c1cc(S(=O)(=O)Nc2cc(C)c(Cl)cc2OC)[nH]n1 | inconclusive: 1.41 µM [inhibitor, full curve, poor fit] | – |
| O=C1NCC(O)=C1C=Nc1ccccc1O | inconclusive: 11.2 µM [inhibitor, partial curve] | – |
| Cc1ccc(N(CC(=O)N/N=C/c2cc(C)n(-c3ccccc3C)c2C)S(C)(=O)=O)cc1 | inconclusive: 6.31 µM [inhibitor, single point] | – |
| CCOc1ccc(CCN2C(=S)N([C@@H](CC(C)C)CN3CCCC3CN3C(=S)NC[C@@H]3Cc3ccc(O)cc3)C[C@@H]2Cc2ccccc2)cc1 (stereo not given in full) | inconclusive: 5.01 µM [inhibitor, full curve] | – |
| Cc1cccc(/C=N/NC(=O)c2ccc(NC(=O)c3cccc(Cl)c3)cc2)n1 | inconclusive: 35.5 µM [inhibitor, single point] | – |
| COc1cc(NC(=S)N2CCN(Cc3ccccc3)CC2)cc(OC)c1 | inconclusive: 14.1 µM [inhibitor, single point] | – |
| NCCCCc1ccc2ccc3cccc4ccc1c2c34 | inconclusive: 14.1 µM [inhibitor, single point] | – |
| Cc1cc(C)cc(OCC(=O)OC(C)C(=O)Nc2c(C)n(C)n(-c3ccccc3)c2=O)c1 (stereo not given) | inconclusive: 3.98 µM [inhibitor, single point] | – |
| COc1ccc(CN2CCNC(=O)C2CC(=O)NC2CCCC2)c(OC)c1 (stereo not given) | inconclusive: 3.55 µM [inhibitor, partial curve] | – |
| CCc1nc(SCc2nc3ccccc3[nH]2)c2oc3ccccc3c2n1 | inconclusive: 35.5 µM [inhibitor, single point] | – |
